# Test results reported in publication PMC6212790.
# Some of the results follow. At the low end of the ranking the order means little.
# Target: T1, GST-Rok (full length) (UniProt O34857)
# T1 sequence: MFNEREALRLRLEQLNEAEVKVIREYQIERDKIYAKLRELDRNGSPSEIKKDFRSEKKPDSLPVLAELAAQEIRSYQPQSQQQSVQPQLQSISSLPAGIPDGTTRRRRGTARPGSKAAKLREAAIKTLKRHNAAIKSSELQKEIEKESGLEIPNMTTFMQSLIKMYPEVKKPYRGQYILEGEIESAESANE
# Test: protein binding microarray;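 also: rank score from −0.5 (least bound) to 0.5 (best bound)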
# Details: Rok is a gene silencer of Bacillus subtilis; high values mean tight binding; most listed sequences are background and not binding sites; double strand, one strand shown
row,Sequence,binding signal [E-score]
1,GGCGCCGA,-0.153
2,ATCCACGC,-0.0952
3,CAGTCCAA,-0.0763
4,GAGGAAGA,-0.299
5,GGTATCTA,0.334
6,ATGATCGG,-0.0463
7,ACCAGCTG,0.0468
8,AAGTGGAA,-0.0172
9,TAAGCTGA,-0.0981
10,CGACATGA,0.14
11,AGCTGATA,0.122
12,GGTAAGGA,-0.0918
13,CGATACCG,0.0685
14,CACAGCTC,-0.139
15,GCGGACTA,-0.0642
16,AATGCGCC,-0.0617
17,TGACTCCA,-0.158
18,CTCCGGAA,-0.0523
19,CTGCAGGC,-0.206
20,GATCTTCA,-0.0726
21,CAAGGAGC,-0.347
22,TAGTATGA,0.141
23,CTCACAGC,-0.195
24,CCGAAGGA,-0.263
25,ACTTTAAT,0.195

row,Sequence,binding signal [E-score]
1,CCCGGGTA,-0.221
2,GAAGGGGA,-0.309
3,ACGTGTTA,-0.0308
4,CATTCAAA,0.00724
5,AAGGTTTG,-0.0626
6,TACAACTA,0.368
7,ATATGAAT,0.106
8,CGTACGAA,0.0484
9,CACAAGAC,-0.175
10,TGATCCAA,-0.104
11,GAAGCATC,-0.0913
12,ATATTAAT,0.345
13,AAGTCTCC,-0.219
14,AACATCGA,0.129
15,GTTACAGA,0.216
16,ACACAAAC,0.111
17,CTCTTCAA,0.0324
18,CATGCTAA,0.132
19,AAGCTTGT,0.0413
20,AGGGATAA,0.0427
21,ACGAATCG,-0.0917
22,AAAATGTA,0.287
23,AATCGCTA,0.139
24,CAGTGTGC,-0.0719
25,CGGCTCTA,-0.155

row,Sequence,binding signal [E-score]
1,ACTGACAT,0.0422
2,AGACTCCT,-0.104
3,AATTCATG,0.197
4,CCACACCG,-0.0167
5,ACTCGGCA,-0.0775
6,GCCGGCAC,-0.335
7,AATTTGGG,-0.192
8,GGGACCGA,-0.345
9,CCCGGACC,-0.283
10,GGGAAAAC,0.131
11,ACTACACT,0.242
12,CAACCCTA,-0.129
13,GCGGCCTA,-0.233
14,GCGCTTGA,-0.165
15,GACCCAGC,-0.253
16,ATAGCGTA,0.222
17,ACCCCATG,-0.268
18,CATATGAC,0.0572
19,CCACTGTA,0.158
20,CCAACCAC,-0.206
21,AACTCGCG,-0.133
22,AATGGGCT,-0.169
23,GCTATGAC,0.0534
24,CAATCACA,0.125
25,TGTGGCAA,-0.0171

row,Sequence,binding signal [E-score]
1,ACCCTGGC,-0.153
2,GACACAGA,-0.168
3,ACCATGGG,-0.289
4,CCGCTCGA,-0.203
5,ATTCGGCC,-0.176
6,GAGAGTCC,-0.151
7,CCCCTGAC,-0.423
8,CACTGGCG,-0.113
9,AGAGCAAG,-0.229
10,CCTAGGGA,-0.209
11,CAAGAAAG,-0.0888
12,AAGTGCTA,0.0947
13,TGGGTAAA,0.248
14,CGTTTGTA,0.138
15,GTGAACGA,-0.173
16,AGAGCAAC,-0.205
17,GCTTACCA,-0.105
18,AGCCAGAT,-0.0289
19,AGGACACA,-0.163
20,AGGCCGTC,-0.0199
21,ACATACTC,0.162
22,ACGAGACC,-0.154
23,CTGTTGAA,-0.0398
24,CTCTACAA,0.0924
25,AATCATCT,0.00102

row,Sequence,binding signal [E-score]
1,ACCTTTCA,-0.0427
2,ATGCAGGG,-0.148
3,CAGTTGTC,-0.0905
4,ATTGCCCC,-0.152
5,GCCGTTCC,-0.334
6,AGGTGACT,-0.218
7,ATTGACGC,0.0974
8,CACAGGGG,-0.304
9,CCCAACTA,0.138
10,AGAGAGTG,-0.0763
11,GGATCGCC,-0.182
12,AATGGACG,-0.0902
13,CTAGGTGA,-0.041
14,CCCGTAAG,-0.153
15,AAGCGGAA,-0.0368
16,TACTAATA,0.346
17,ACTGTGTC,0.0666
18,CACCCTGA,-0.0454
19,CTCTGGGC,-0.0543
20,ATAATTTG,0.284
21,GGTGAGAA,-0.0641
22,CTCCTCCA,-0.196
23,ACCCTAAA,0.024
24,ACCCATGA,0.159
25,CATTATGG,0.107

row,Sequence,binding signal [E-score]
1,ACGCGCGC,0.178
2,AGATAGAC,0.108
3,GTTATCGA,0.0792
4,AGCTCAGG,-0.222
5,ATATCCTA,0.36
6,AGACGTCG,0.0554
7,AATAGGGA,0.043
8,CGCATCCC,-0.41
9,AGTCGTAG,-0.104
10,ATGGCACA,-0.0786
11,CTCCTTGC,-0.34
12,CATCCACG,-0.00909
13,GTCCCGAC,-0.0855
14,ATAACCTC,-0.0924
15,CTTCTAAC,0.0998
16,ATGCTCAG,-0.224
17,ACCATTTG,0.03
18,GTTTTAAA,0.149
19,AGGTATGC,0.154
20,CCCGGTTA,-0.0985
21,GCAGATTA,0.109
22,ATAGCTGG,0.125
23,ATATGTAA,0.286
24,TCACCGCA,-0.152
25,AGATAGTG,0.199

row,Sequence,binding signal [E-score]
1,GTACATCA,0.176
2,TATTTCAA,0.201
3,GTGATGCA,-0.0315
4,CTCTGGCA,-0.213
5,ATCGACAT,-0.0715
6,CCGTTTGC,-0.0322
7,ATTCTCCG,0.212
8,CAGCGCTA,-0.0901
9,ACTTATAA,0.28
10,ATTAGCTA,0.286
11,AAGCACGT,0.0893
12,CGAGCGAA,-0.105
13,CAATCGAC,-0.0869
14,GACACACA,-0.0217
15,CCAGCCAC,-0.234
16,CATCTAGA,0.00809
17,GAAGGAAC,-0.0978
18,ATCGATGG,0.0568
19,ATATCACC,0.222
20,ATTCGCAC,-0.0552
21,CCGATTTC,-0.187
22,TCACTTAA,0.015
